Out of some 52,000 compounds screened, about 1,700 (3.3%) were called active. Rule as the data show it: active = survival mostly below about 52% (no sharp cut-off); inactive = mostly above about 56%. Some of the results follow.
The molecules below were run on Wild type (assay: S. aureus survival, RN4220 and DeltatarO strains – OD600, teichoic acid synthesis inhibitors, primary screen (AID 463173)). Conditions: S. aureus RN4220 wild type/DeltatarO growth, OD600, 18 h, stronger effect = lower value; concentration not given here unless noted.

| SMILES | survival |
| --- | --- |
| COc1cc(/C=C/c2nc3ccccc3c(=O)n2-c2ccc(Br)c(C)c2)ccc1O | inactive: 74% |
| O=C(Nc1ccc2c(c1)OCCO2)c1cccn(Cc2cccc([N+](=O)[O-])c2)c1=O | inactive: 78% |
| CC(C)NCc1ccc2c(c1)OCO2 | inactive: 101% |
| N#Cc1cc([N+](=O)[O-])ccc1NC(=O)c1cccn(Cc2cccc(F)c2)c1=O | inactive: 124% |
| CSc1ccc(C(c2c(O)c3ccccc3oc2=O)c2c(C)n(C)n(-c3ccccc3)c2=O)cc1 (configuration not stated) | inactive: 112% |
| CN1CCN(c2csc3ccc(F)cc3c2=O)CC1 | inactive: 68% |
| CC12CCC3C(CCC4CC(N)CCC43C)C1CCC2O (configuration not stated) | inactive: 122% |
| N#Cc1cc2c(nc1SCC(=O)Nc1cccc(F)c1)C1CCN2CC1 | active: -3% |
| CCOc1ccc(-n2c(/C=C/c3ccccc3)nc3ccccc3c2=O)cc1 | inactive: 136% |
| CSc1nc2ccccc2c(=O)n1-c1ccccc1C | inactive: 107% |
| O=C1CC(=O)N(c2ccccc2)C(=O)N1c1ccccc1 | inactive: 111% |
| O=C(Nc1ccc2c(c1)OCO2)c1cccn(Cc2ccc(F)cc2)c1=O | inactive: 59% |
| Cn1c(=O)n(C)c2cc(CNCCc3ccccc3)ccc21 | inactive: 99% |
| O=c1cccc2n1CC1CC2CN(c2ncnc3c2cnn3-c2ccc(Cl)cc2)C1 (configuration not stated) | inactive: 109% |
| Cc1ccccc1Cn1cccc(C(=O)Nc2cc(Cl)ccc2C#N)c1=O | inactive: 49% |
| O=C(Cc1ccccc1)Oc1cccc(-n2cnnn2)c1 | inactive: 120% |
| COC(=O)c1cn(Cc2ccccc2C#N)c2ccccc12 | inactive: 111% |
| Cn1cc(C=C(C#N)C#N)c2ccccc21 | inactive: 114% |
| Cc1cc(NC(=O)c2cccn(Cc3cccc([N+](=O)[O-])c3)c2=O)no1 | inactive: 89% |
| CCOc1ccc(CC2(CCc3ccncc3)C(=O)NC(=O)NC2=O)cc1 | inactive: 96% |
| OCCCNc1c2c(nc3ccccc13)CCCC2 | inactive: 99% |
| N#CC(C#N)=Cc1ccc(-c2ccccc2)o1 | inactive: 123% |
| CCN1CCN(C(=O)COc2ccc(S(=O)(=O)N(C)Cc3ccccc3)cc2)CC1 | inactive: 90% |
| CCOc1ccc2nc(NC(=O)c3cccn(Cc4ccccc4C)c3=O)sc2c1 | inactive: 73% |
| CCC(=O)N1CC(=O)Nc2ccc(C)cc2C1c1ccc(F)cc1 (configuration not stated) | inactive: 77% |
| COc1ccc(CNCC(=O)N2CCC3(CC2)OCCO3)cc1 | inactive: 107% |

| SMILES | survival |
| --- | --- |
| CCc1ccc(OCC(=O)N2CCN(CCc3ccccn3)CC2)cc1 | inactive: 83% |
| CC1CC(=O)C2CCCCC2N1 (configuration not stated) | inactive: 100% |
| COc1ccc(-c2nc(CN3C(=O)CN=C(c4ccccc4)c4ccccc43)c(C)o2)cc1OC | inactive: 96% |
| Cc1cc(N2CCNCC2)nc2ccccc12 | inactive: 94% |
| O=C1CN=C(c2ccccc2)c2cc(Cl)ccc2N1Cc1ccc(Cl)cc1 | inactive: 50% |
| COc1ccccc1-n1c(/C=C/c2ccccc2)nc2ccccc2c1=O | inactive: 80% |
| CN(C)C(=O)Oc1ccnc2cc(Cl)ccc12 | inactive: 108% |
| COc1ccc(-c2nn3c(=O)cc(CN4CCN(C(=O)COc5ccc(F)cc5)CC4)nc3s2)cc1 | inactive: 68% |
| CCC(C)c1c(O)[nH]c(=S)[nH]c1=O (configuration not stated) | inactive: 121% |
| Cc1oc(-c2ccc(Cl)cc2)nc1CN1C(=O)CN=C(c2ccccc2)c2cc(Cl)ccc21 | inactive: 73% |
| CC(c1ccccc1)N1CCNCC1 (configuration not stated) | inactive: 101% |
| CCC1(CCc2ccncc2)C(=O)NC(=O)NC1=O | inactive: 114% |
| CCc1ccc(-n2nc(C)c3c2NC(=O)CSC3c2ccc(OC)cc2OC)cc1 (configuration not stated) | inactive: 94% |
| CCC(C(=O)Nc1ccccc1F)N1C(=O)CN=C(c2ccccc2)c2ccccc21 (configuration not stated) | inactive: 80% |
| CCOC(=O)c1ccc(NC(=O)c2cccn(Cc3ccccc3F)c2=O)cc1 | inactive: 75% |
| CCN=Cc1c(O)n(C)c(=O)n(C)c1=O | inactive: 118% |
| N#Cc1cc(F)c(N2CCNCC2)cc1Cl | inactive: 130% |
| N#Cc1ccccc1NC(=O)c1cccn(Cc2ccccc2)c1=O | inactive: 70% |
| COc1ccc(-c2nc(CN3C(=O)CN=C(c4ccccc4Cl)c4cc(Cl)ccc43)c(C)o2)cc1OC | inactive: 77% |
| O=C(Cn1cc(C(=O)c2ccccc2)c2ccccc21)Nc1ccc(Br)cc1 | inactive: 65% |
| CCCc1ccc(OCC(=O)Nc2ccc(Cl)cc2C(=O)c2ccccc2)cc1 | inactive: 66% |
| Cc1cccc(CN2C(=O)CN=C(c3ccccc3)c3cc(Cl)ccc32)c1 | inactive: 73% |
| CC(C)c1ccc(NC(=O)CN2C(=O)CN=C(c3ccccc3)c3ccccc32)cc1 | inactive: 82% |
| O=C(NC1CC2CCC(C1)N2)c1ccccc1 (configuration not stated) | inactive: 96% |
| O=C(CNC1CCCCC1)N1CCC2(CC1)OCCO2 | inactive: 110% |
| COc1ccc(OCC(=O)N2CCN(CCc3ccccn3)CC2)cc1 | inactive: 82% |

| SMILES | survival |
| --- | --- |
| CC1(C)CC(NC(=O)CN2CCCC2=O)CC(C)(C)N1 | inactive: 111% |
| Cc1ccc(-n2c(/C=C/c3cc(Br)cs3)nc3ccccc3c2=O)cc1C | inactive: 68% |
| COc1ccc(C)cc1NC(=O)c1cccn(Cc2ccccc2Cl)c1=O | inactive: 78% |
| N#CC(C#N)=Cc1ccc(N2CCCCC2)cc1 | inactive: 112% |
| Cc1cccc(C)c1OCC(=O)Nc1ccc(Cl)cc1C(=O)c1ccccc1 | inactive: 30% |
| O=C(COc1ccccc1[N+](=O)[O-])N1CCN(CCc2ccncc2)CC1 | inactive: 85% |
| COc1ccc(CN2CCNCC2)cc1 | inactive: 98% |
| C1CCN2C(C1)N1CCCCC1N1CCCCC21 (configuration not stated) | inactive: 110% |
| CCC(C)N1CCN(Cc2cc(OC)c(OC)cc2OC)CC1 (configuration not stated) | inactive: 123% |
| CN1C(=O)C(=Cc2ccco2)C(=O)N(C)C1=O | inactive: 109% |
| Cn1c(=O)n(C)c2cc(CNCCc3ccccc3F)ccc21 | inactive: 88% |
| Cc1ccc(-n2c(/C=C/c3ccccc3)nc3ccccc3c2=O)cc1Cl | inactive: 86% |
| CC(=O)OC1(c2ccccc2)CCN(C)C2CCCCC21 (configuration not stated) | inactive: 112% |
| CN1/C(=C\C=C2C(=O)NC(=O)NC2=O)C(C)(C)c2ccccc21 | inactive: 116% |
| CCCNCCc1ccccc1 | inactive: 106% |
| COc1ccc(OC)c(CCNCc2c(C(=O)O)c(C)n(Cc3ccc(F)cc3Cl)c2C)c1 | inactive: 99% |
| OC1(c2ccc(F)cc2)CC2CCC(C1)N2Cc1nnnn1C1CCCCC1 (configuration not stated) | inactive: 104% |
| COc1ccc(NC(=O)CCc2nc(C3=CCN(Cc4cccc(C)c4)CC3)no2)c(OC)c1 | inactive: 77% |
| Cc1cc(OCC(=O)N2CCN(CCc3ccncc3)CC2)cc(C)c1Cl | inactive: 84% |
| CCC1(CC)C(=O)NC(=NCc2ccc(OC)cc2)N(C)C1=O | inactive: 99% |
| Cc1cccc(-n2c(/C=C\c3cccc(Br)c3)nc3ccccc3c2=O)c1 | inactive: 126% |
| O=C1NC(=O)N(c2ccc3c(c2)OCO3)C(=O)/C1=C/c1ccsc1 | inactive: 105% |
| COc1ccc(C2CC(=O)Oc3c2c(=O)oc2ccccc32)c(OC)c1OC (configuration not stated) | inactive: 70% |
| CC12CNCC(C)(CN(Cc3ccccc3)C1)C2 | inactive: 98% |
| Cc1ccc(Cn2cccc(C(=O)Nc3ccc(C)c(Cl)c3)c2=O)cc1 | inactive: 75% |
| Cc1ccccc1-c1nc2ccccc2c(=O)n1C | inactive: 113% |

| SMILES | survival |
| --- | --- |
| Cc1ccc(CNC(=O)CCCn2c(=O)c3sccc3n(CC(=O)Nc3c(C)cccc3C)c2=O)cc1 | inactive: 91% |
| Cc1cccc(CNCCc2ccccc2)n1 | inactive: 115% |
| COc1ccc2c(c1OC)C(=O)OC2C1c2cc3c(cc2CCN1C)OCO3 (configuration not stated) | inactive: 101% |
| CCc1cc2c(s1)NC(=O)CN=C2c1cccs1 | inactive: 112% |
| CNCC(C)c1ccccc1 (configuration not stated) | inactive: 96% |
| OC1(c2ccc(F)cc2)CC2CCC(C1)N2Cc1nnnn1Cc1ccco1 (configuration not stated) | inactive: 103% |
| Cc1nnc(NC(=O)c2cccn(Cc3ccccc3)c2=O)s1 | inactive: 91% |
| C1CCCN(C2CCNCC2)CC1 | inactive: 106% |
| Cc1cccc(OC(C)C(=O)NCC2(N(C)C)CCCCC2)c1C (configuration not stated) | inactive: 88% |
| O=C(Nc1nc2ccccc2s1)c1cccn(Cc2ccccc2)c1=O | inactive: 73% |
| CCCc1nc(SC)ncc1C(=O)Nc1ccc(Cl)cc1C(=O)c1ccccc1 | inactive: 84% |
| CCOc1ccc(CN(CCc2ccc3c(c2)OCO3)Cc2cccc(Br)c2)cc1 | inactive: 65% |
| O=C(COc1ccccc1Cl)N1CCN(CCc2ccccn2)CC1 | inactive: 110% |
| O=c1c2ccccc2nc(CN2CCOCC2)n1-c1cccc(C(F)(F)F)c1 | inactive: 113% |
| O=C1C=C2C3CCN(CC3)C2CC1 (configuration not stated) | inactive: 112% |
| Cc1ccccc1-n1nc(C)c2c1NC(=O)CSC2c1ccccc1C(F)(F)F (configuration not stated) | inactive: 58% |
| COc1ccccc1CN1CCN(C(=O)COc2cccc(C)c2)CC1 | inactive: 123% |
| COc1ccc(NC(=O)CN2C(=O)CN=C(c3ccccc3)c3ccccc32)c(OC)c1 | inactive: 71% |
| CC(=O)Nc1c(O)[nH]c(=S)[nH]c1=O | inactive: 104% |
| CCOc1ccc(CN(CCc2ccc3c(c2)OCO3)Cc2ccc(CC)cc2)cc1 | inactive: 54% |
| O=C(COc1ccc2ccccc2c1)N1CCN(Cc2ccncc2)CC1 | inactive: 103% |
| Cc1oc2cc3oc(=O)c(CCC(=O)N4CCCCC4)c(C)c3cc2c1C | inactive: 113% |
| O=C(Nc1ccc(OC(F)(F)F)cc1)c1cccn(Cc2ccccc2Cl)c1=O | inactive: 131% |
| O=C(c1ccc2c(c1)N(Cc1c(F)cccc1Cl)C(=O)c1ccccc1S2)N1CCC2(CC1)OCCO2 | inactive: 82% |

Source: PubChem BioAssay AID463173 (ICCB-Longwood Screening Facility, Harvard Medical School, 2010)
